Assay results as given in PubChem BioAssay AID624418 (National Center for Advancing Translational Sciences (NCATS), 2012).
Screen size: about 410,000 compounds; about 530 (0.13%) were called active. Inconclusive results, whose numbers are uncertain, are shown with a selection of clear calls. Calls follow the shape of the dose curve; as a rule, active = well fitted inhibition curve with a large enough effect; inconclusive = small, poorly fitted or top-dose-only effect, or another doubt; inactive = no such curve, though single readings can be large or run the other way. A potency beside an inconclusive call is a rough fit, not a confirmed value.

Assay: qHTS of GLP-1 Receptor Inverse Agonists: Cytotox Screen
Settings: HEK293 cAMP-luciferase reporter cells, luminescence, 24 h; series mostly up to 38.3 µM
Outline: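 MLSMR compounds, 24 hr on cells at 37 deg C/5% CO2; luminescence after luciferase reagent (12 min RT). Inhibition counted as the undesired cytotoxic outcome.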
Potency is read from the fitted curve at half-maximal effect.

Question: Which Potency does the source give for `CSc1nc(N)c(C#N)c(-c2ccccc2Cl)c1C#N` here?
Answer: inconclusive: 8.91 µM [inhibitor, single point]

Question: With `Fc1ccc(-c2nn(-c3ccccc3)cc2CNCc2ccccc2)cc1` as the compound, how does the Potency read?
Answer: inconclusive: 12.6 µM [inhibitor, single point]

Question: With `Cc1cc(Nc2ccc(C)c(C)c2)c2ccccc2n1` as the compound, how does the Potency read?
Answer: inconclusive: 14.1 µM [inhibitor, partial curve, poor fit]

Question: Which Potency does the source give for `C[C@@H](NCCCn1ccc(NC(=O)OCc2ccccc2)nc1=O)c1cccc2ccccc12` here?
Answer: inconclusive: 28.2 µM [inhibitor, single point]

Question: Which Potency does the source give for `C[C@H](C[C@H](O)[C@H]1OC1(C)C)C1=C2C[C@H](O)C3[C@@]4(C)CCC(=O)C(C)(C)C4CC[C@]3(C)[C@@]2(C)CC1` (stereo partly drawn) here?
Answer: inconclusive: 28.2 µM [inhibitor, single point]

Question: With `CCCCCC(=O)N/N=C(\C)c1ccccn1` as the compound, how does the Potency read?
Answer: inconclusive: 20 µM [inhibitor, single point]

Question: Which Potency does the source give for `Cn1cccc1/C=C1\SC(=S)N(NC(=O)c2ccc(F)cc2)C1=O` here?
Answer: inconclusive: 12.6 µM [inhibitor, single point]

Question: Which Potency does the source give for `COc1ccc(CN(Cc2cc3ccc(C)cc3[nH]c2=O)Cc2nnnn2C2CCCC2)cc1` here?
Answer: inconclusive: 31.6 µM [inhibitor, single point]

Question: For `COc1ccccc1CNC(=O)CCn1c(=O)c2ccccc2n(CC(=O)Nc2ccc(C)cc2)c1=O`, which Potency is on record?
Answer: inactive

Question: For `CCOc1ccc(NC(=S)N=Nc2c(O)[nH]c3ccccc23)cc1`, which Potency is on record?
Answer: inconclusive: 10 µM [inhibitor, partial curve, poor fit]

Question: Which Potency does the source give for `Cc1ccc(-c2c[n+](CC(=O)Nc3c(C)cccc3C)c3n2CCC3)cc1` here?
Answer: inactive

Question: With `Cc1nnnn1/C(=C\c1ccccc1)C(=O)OCC(=O)NC(C)(C)C` as the compound, how does the Potency read?
Answer: inconclusive: 6.31 µM [inhibitor, partial curve, poor fit]

Question: Which Potency does the source give for `Cc1nn(Cc2ccc(Cl)cc2)c(C)c1NC(=O)c1c(-c2ccccc2)noc1C` here?
Answer: inactive

Question: Which Potency does the source give for `CCN(CCCNC(=O)CNC(=O)c1nn(-c2ccc(OC)cc2OC)c(=O)c2ccccc12)c1cccc(C)c1` here?
Answer: inconclusive: 28.2 µM [inhibitor, single point]

Question: For `NC(=NCCc1c[nH]c2ccccc12)NS(=O)(=O)c1cc(F)ccc1F`, which Potency is on record?
Answer: inactive

Question: With `Cc1ccc(C)c(N2CCN(C(=O)c3cc4ccc5cccnc5c4[nH]3)CC2)c1` as the compound, how does the Potency read?
Answer: inactive

Question: For `S=c1sscc1-c1ccccc1`, which Potency is on record?
Answer: inconclusive: 10 µM [inhibitor, partial curve, poor fit]

Question: Which Potency does the source give for `COc1cc(-c2nc(-c3ccc(NC(=O)c4ccc(Br)o4)cc3)no2)cc(OC)c1OC` here?
Answer: inconclusive: 14.1 µM [inhibitor, single point]

Question: For `Cc1ccc(-c2nc3ccccc3[nH]2)cc1NC(=O)/C=C/c1ccco1`, which Potency is on record?
Answer: inconclusive: 31.6 µM [inhibitor, single point]

Question: With `COC1(OC)C(/C=C/c2ccc(Cl)cc2)C(C#N)(C#N)C1(OC)OC` (stereo not drawn) as the compound, how does the Potency read?
Answer: inconclusive: 12.6 µM [inhibitor, single point]

Question: For `CN(C)S(=O)(=O)c1ccc(N2C(=O)CC2(/C=C/c2ccccc2)C(=O)NC2CCCC2)cc1` (stereo not drawn), which Potency is on record?
Answer: inactive

Question: With `O=C(Nc1ccccc1F)c1ccc2ncsc2c1` as the compound, how does the Potency read?
Answer: inactive

Question: With `O=C(/C=C/c1ccco1)NC(=S)Nc1ccccc1O` as the compound, how does the Potency read?
Answer: inconclusive: 25.1 µM [inhibitor, partial curve, poor fit]

Question: With `O=C(NNC1=C(C(=O)C(F)(F)F)CCC1)c1ccccc1Cl` as the compound, how does the Potency read?
Answer: inconclusive: 2.51 µM [inhibitor, full curve]

Question: Which Potency does the source give for `Cc1cc(C(=O)N/N=C/c2ccc([N+](=O)[O-])s2)n[nH]1` here?
Answer: inconclusive: 7.08 µM [inhibitor, partial curve, poor fit]

Question: With `CC(=O)N(Cc1ccc(F)cc1)C1=C(NCc2ccccc2)C(=O)c2ccccc2C1=O` as the compound, how does the Potency read?
Answer: inconclusive: 20 µM [inhibitor, single point]

Question: With `Nc1ccc(C(=O)OCC(=O)NC(=O)c2ccccc2)cc1[N+](=O)[O-]` as the compound, how does the Potency read?
Answer: inactive

Question: With `COc1ccc(C(OCC(O)CNC(C)c2ccccc2)c2ccc(OC)cc2)cc1` (stereo not drawn) as the compound, how does the Potency read?
Answer: inconclusive: 28.2 µM [inhibitor, single point]

Question: With `COCCCNC(=O)c1ccc2c(c1)N=C(C)c1c(C)ccc(C)c1S2` as the compound, how does the Potency read?
Answer: inactive

Question: For `CN(CCO)c1cc(Sc2nc3ccccc3s2)c2nonc2c1[N+](=O)[O-]`, which Potency is on record?
Answer: inconclusive: 10 µM [inhibitor, partial curve]

Question: For `Cc1cnc(NC2=NCCC2)s1`, which Potency is on record?
Answer: inconclusive: 12.6 µM [inhibitor, single point]

Question: For `COc1ccccc1NC(=S)NC1CCCCCCCCCCC1`, which Potency is on record?
Answer: active: 0.501 µM

Question: Which Potency does the source give for `CCC1=Nc2cc(C(=O)NCc3ccco3)ccc2Sc2ccc(C)cc21` here?
Answer: inconclusive: 0.501 µM [inhibitor, full curve, poor fit]

Question: Which Potency does the source give for `COc1cc(NC(=O)C(CC(C)C)NS(=O)(=O)c2ccc3c(c2)CCCC(=O)N3)cc(OC)c1` (stereo not drawn) here?
Answer: inactive

Question: Which Potency does the source give for `COc1ccc2oc(=O)c(-c3csc(/C(C#N)=C/c4ccc(F)cc4)n3)cc2c1` here?
Answer: inactive

Question: Which Potency does the source give for `CCN1CCC(N(Cc2cccc(OC)c2)C(=O)Nc2cccc(C(F)(F)F)c2)CC1` here?
Answer: inactive

Question: For `O=Cc1nccc2ccccc12`, which Potency is on record?
Answer: inconclusive: 31.6 µM [inhibitor, single point]

Question: Which Potency does the source give for `Cc1ccc(-c2[nH]ncc2/C=N/n2c(COc3ccccc3)nc3ccccc3c2=O)cc1` here?
Answer: inconclusive: 11.2 µM [inhibitor, partial curve, poor fit]

Question: With `c1ccc(CNCCC(Cc2ccccc2)c2ccco2)cc1` (stereo not drawn) as the compound, how does the Potency read?
Answer: inconclusive: 14.1 µM [inhibitor, single point]

Question: For `CCOc1ccc(C2c3c(-c4ccc(C)cc4)n[nH]c3C(=O)N2c2ccc(Cl)cc2)cc1` (stereo not drawn), which Potency is on record?
Answer: inconclusive: 25.1 µM [inhibitor, partial curve, poor fit]

Question: Which Potency does the source give for `O=C(NC(=S)Nc1ccccn1)c1ccccc1` here?
Answer: inconclusive: 25.1 µM [inhibitor, single point]

Question: For `COc1cccc(/C=C/c2ccc3cccc(O)c3n2)c1`, which Potency is on record?
Answer: inconclusive: 3.16 µM [inhibitor, full curve, poor fit]

Question: With `Cc1cc(C)nc(/N=C(\N)Nc2ccc3c(c2)OCCO3)n1` as the compound, how does the Potency read?
Answer: inconclusive: 12.6 µM [inhibitor, partial curve, poor fit]
